Experimental data: article PMC9304783, “Mapping interactions between the CRAC activation domain and CC1 regulating the activity of the ER Ca^2+ sensor STIM1” (The Journal of Biological Chemistry, 2022)

Biological target: the molecule itself
Assay: FRET or BRET; E-FRET between YFP-CAD and CFP-CAD in live HEK293-H cells, to probe CAD dimerization

Sequence of YFP-CAD (Q13586 342-448): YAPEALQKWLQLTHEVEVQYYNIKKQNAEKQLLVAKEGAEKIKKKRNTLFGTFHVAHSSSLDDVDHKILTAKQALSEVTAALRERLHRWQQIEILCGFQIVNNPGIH

Row | Protein | E-FRET
1 | YFP-CAD (domain or fragment, In the CAD-CAD FRET the second copy carried CFP instead of YFP (CFP-CAD, gift of R. S. Lewis); also called WT CAD; source: HEK293-H, transfected, in live cells; not shown: YFP, N-terminal, kept) not shown | 0.11 ± 0.006
2 | YFP-CAD L347A (domain or fragment, In the CAD-CAD FRET the second copy carried CFP instead of YFP; source: HEK293-H, transfected, in live cells; not shown: YFP, N-terminal, kept) not shown | 0.13 ± 0.006
3 | YFP-CAD W350A (domain or fragment, In the CAD-CAD FRET the second copy carried CFP instead of YFP; source: HEK293-H, transfected, in live cells; not shown: YFP, N-terminal, kept) not shown | 0.11 ± 0.009
